The target in the assay is collagen type III (coated on microtiter plates). Nature of the assay: ELISA saturation curve, collagen type III coated plates. In general terms: An ELISA detects its analyte on a solid surface through an enzyme-linked reagent.

Bounds are passed on as bounds.

B1: GPVI-Fc fusion protein (as encoded in KL74A) (Fc fusion)
chain: LAFKLKLQSGPLPKPSLQALPSSLVPLEKPVTLRCQGPPGVDLYRLEKLSSSRYQDQAVLFIPAMKRSLAGRYRCSYQNGSLWSLPSDQLELVATGVFAKPSLSAQPGPAVSSGGDVTLQCQTRYGFDQFALYKEGDPAPYKNPERWYRASFPIITVTAAHSGTYRCYSFSSRDPYLWSAPSDPLELVVTGTSVTPSRLPTEPPSSVAEFSEATAELTVSFTNKVFTTETSRSITTSPKESDSPAGPARQYYTKGNCGR[human IgG1 Fc with changes omitted here]
Consider B1, for which the concentration at which collagen-binding sites are completely occupied was above 100 nM.

Source of the values: patent publication US7507412B2, “Glycoprotein VI fusion proteins” (Merck Patent GmbH, priority 2001, dated 2009).
